Over roughly 33,000 sequences, “E-score (-0.5 to 0.5)” has its median near -0.054; the highest 2% begin near 0.35. This is one part of the list.
Target: T1, Stb5 (UniProt P38699)
T1 sequence: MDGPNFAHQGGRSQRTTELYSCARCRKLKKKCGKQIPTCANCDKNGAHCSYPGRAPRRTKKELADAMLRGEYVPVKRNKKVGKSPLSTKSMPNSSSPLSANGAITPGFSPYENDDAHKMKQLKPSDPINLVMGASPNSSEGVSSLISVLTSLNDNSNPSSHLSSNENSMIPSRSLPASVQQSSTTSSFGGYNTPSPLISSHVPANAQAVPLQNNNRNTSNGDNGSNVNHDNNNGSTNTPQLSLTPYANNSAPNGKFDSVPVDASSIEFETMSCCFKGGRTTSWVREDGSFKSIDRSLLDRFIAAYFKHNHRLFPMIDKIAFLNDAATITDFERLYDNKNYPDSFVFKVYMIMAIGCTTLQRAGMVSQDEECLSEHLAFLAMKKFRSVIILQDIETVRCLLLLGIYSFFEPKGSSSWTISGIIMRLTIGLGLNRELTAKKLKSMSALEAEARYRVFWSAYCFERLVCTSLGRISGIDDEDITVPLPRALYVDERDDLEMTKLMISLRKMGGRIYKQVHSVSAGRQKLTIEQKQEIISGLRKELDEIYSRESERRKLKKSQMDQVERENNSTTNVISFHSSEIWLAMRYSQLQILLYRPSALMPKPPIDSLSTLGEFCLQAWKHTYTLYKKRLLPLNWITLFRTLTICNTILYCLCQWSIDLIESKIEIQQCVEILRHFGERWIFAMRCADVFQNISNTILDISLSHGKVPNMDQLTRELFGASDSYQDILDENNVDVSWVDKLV
Assay: PBM E-score (8-mer binding enrichment) (E-score (-0.5 to 0.5)); higher = stronger / more preferred TF binding; most listed sequences are background and not binding sites
Details: protein concentration: 200 nM; construct: GST-full length
Description: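 Universal 'all 10-mer' protein binding microarrays (Agilent AMADID 015681) probed with GST-tagged S. cerevisiae TFs (full-length or DBD) made by in vitro transcription/translation (PURExpress), about 100-200 nM. Bound TF was detected with fluorescent anti-GST. Each ungapped 8-mer (which stands for itself and its reverse complement) is scored by the PBM enrichment score (E-score), a modified Wilcoxon-Mann-Whitney statistic from -0.5 to +0.5, computed with the Universal PBM Analysis Suite. Scale: above 0.35 generally sequence-specific binding.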

Going from TATGAGAA to AGGAACAT, the “PBM E-score” value falls from -0.141 to -0.318.

Going from AGAAACTA to CTCAGCTA, the “PBM E-score” value rises from -0.242 to -0.177.

Going from CAGCGAAA to CACTTTAC, the “PBM E-score” value falls from -0.0202 to -0.083.

Compared with ATTAAGGC, AGGACGCC is lower in “PBM E-score” value: 0.0694 for the first, -0.073 for the second.

Compared with CGTCTAAC, CTAATCAA is lower in “PBM E-score” value: 0.0919 for the first, 0.0172 for the second.

First: GGTTACGA
Second: ATGGGGTG
The “PBM E-score” value of the first is higher: -0.0527 for the first, -0.183 for the second.

First: GTGGCCTA
Second: CCCTTTCA
The “PBM E-score” value of the first is lower: -0.157 for the first, -0.091 for the second.

Compared with ACATTATA, CTCTTCCA is lower in “PBM E-score” value: -0.0212 for the first, -0.0723 for the second.

First: GCTAATAC
Second: ATTACAAG
The “PBM E-score” value of the first is higher: 0.212 for the first, -0.0874 for the second.

First: CACGGGGA
Second: ATGAATCA
The “PBM E-score” value of the first is higher: 0.319 for the first, -0.182 for the second.

First: GACAAGTC
Second: ATAACGGG
The “PBM E-score” value of the first is lower: -0.142 for the first, 0.187 for the second.

Going from TTGATAAA to CCGTATCA, the “PBM E-score” value rises from 0.0862 to 0.145.

First: CTGCAGGA
Second: CATACACG
The “PBM E-score” value of the first is higher: -0.0496 for the first, -0.181 for the second.

Compared with CCATAAAC, GTAAGCGA is lower in “PBM E-score” value: -0.00805 for the first, -0.237 for the second.

Going from CAGGTAAG to CGAGCTCA, the “PBM E-score” value rises from 0.0157 to 0.0513.

Going from AGGCGGTA to AATAGCGT, the “PBM E-score” value falls from 0.287 to 0.179.

First: GAATGACA
Second: TCCGAGAA
The “PBM E-score” value of the first is lower: -0.252 for the first, 0.0847 for the second.

First: GGTCCCAC
Second: GGGTGGCA
The “PBM E-score” value of the first is higher: 0.0784 for the first, -0.14 for the second.

Going from AAGAATGT to CGACCCGA, the “PBM E-score” value rises from -0.182 to 0.117.

First: CCAGGCGG
Second: AGACGCGC
The “PBM E-score” value of the first is higher: 0.28 for the first, -0.127 for the second.

First: AGGTCGAA
Second: ACTAAACC
The “PBM E-score” value of the first is lower: -0.127 for the first, 0.288 for the second.

Compared with ACGAGTGC, CCCACCTA is higher in “PBM E-score” value: -0.0871 for the first, -0.0465 for the second.

Going from TATAACGA to ATCGGCTA, the “PBM E-score” value rises from -0.0284 to 0.102.

Compared with CAGAATCC, CCGTTGAA is higher in “PBM E-score” value: -0.0711 for the first, 0.104 for the second.

Compared with CATATAGC, GCGTAACC is lower in “PBM E-score” value: 0.0431 for the first, -0.0202 for the second.

First: ATGGTTAC
Second: CGCCACCA
The “PBM E-score” value of the first is lower: -0.233 for the first, 0.0934 for the second.

Compared with ACAGTAAA, AAGGGCAG is lower in “PBM E-score” value: -0.0941 for the first, -0.293 for the second.

Going from CGACTTAC to GGATTGGA, the “PBM E-score” value falls from 0.0696 to -0.103.

First: GAGTGACC
Second: GGCAATTA
The “PBM E-score” value of the first is lower: -0.0936 for the first, 0.163 for the second.

First: ATACCGGC
Second: CTGTTTAA
The “PBM E-score” value of the first is higher: 0.304 for the first, 0.14 for the second.

Going from AATCGCAA to AGTACGGG, the “PBM E-score” value rises from -0.0633 to 0.0873.

First: TAAGCTAA
Second: CTTTCGGC
The “PBM E-score” value of the first is lower: 0.00383 for the first, 0.184 for the second.

Going from CCTTCGTA to CACATCTG, the “PBM E-score” value falls from -0.0357 to -0.103.

First: AAGTAAAC
Second: GTCGCCAC
The “PBM E-score” value of the first is higher: 0.0705 for the first, -0.186 for the second.

Compared with AAACAAAG, ATGGATAC is lower in “PBM E-score” value: 0.0786 for the first, -0.191 for the second.

First: TCTGGTAA
Second: GAGAGGCA
The “PBM E-score” value of the first is higher: 0.025 for the first, -0.131 for the second.

First: AGGCACCG
Second: CCACACCA
The “PBM E-score” value of the first is higher: 0.328 for the first, -0.256 for the second.

Compared with TCATTTAA, CGTGGCAA is higher in “PBM E-score” value: -0.137 for the first, -0.0429 for the second.

Going from CGATAGTC to AGAACTCT, the “PBM E-score” value falls from -0.0519 to -0.216.

Going from GTACCGAC to ATGCGGAA, the “PBM E-score” value falls from 0.382 to 0.154.

First: CCACACGG
Second: GTCGTACA
The “PBM E-score” value of the first is higher: 0.0636 for the first, -0.068 for the second.

First: GAGATTTA
Second: CGGCACAG
The “PBM E-score” value of the first is lower: 0.0902 for the first, 0.11 for the second.

First: AACACTAC
Second: AGAATCGC
The “PBM E-score” value of the first is lower: -0.17 for the first, 0.232 for the second.

Going from CACTATGC to CCGCGAAA, the “PBM E-score” value rises from -0.0324 to 0.236.

Going from ACGCCAAA to CAAAGCTA, the “PBM E-score” value rises from -0.162 to 0.0075.

First: AGCCGTGC
Second: ACTTAATA
The “PBM E-score” value of the first is lower: -0.0522 for the first, -0.0419 for the second.

Compared with GGATTGAC, ATGAGGAG is lower in “PBM E-score” value: -0.0821 for the first, -0.113 for the second.

Going from AGAAGCCA to ATCGATGC, the “PBM E-score” value rises from -0.135 to -0.0102.

Going from CCCGTCAC to GACGATAA, the “PBM E-score” value falls from 0.281 to -0.0302.

Going from AGCGGCAT to AAATTTAT, the “PBM E-score” value falls from 0.401 to -0.0756.

Compared with CCGACTAG, CTTAATGA is lower in “PBM E-score” value: 0.297 for the first, -0.095 for the second.

First: TTCACCAA
Second: GTCCAGGA
The “PBM E-score” value of the first is higher: -0.0231 for the first, -0.228 for the second.

Going from GCATTTCC to AATCACGG, the “PBM E-score” value rises from 0.0245 to 0.235.

Compared with GATCTTCC, AGTATCAC is lower in “PBM E-score” value: 0.058 for the first, 0.0424 for the second.

Going from CGCTACCC to CAACACTG, the “PBM E-score” value falls from -0.0254 to -0.305.

Compared with CGTTCAGA, CGGCGATA is higher in “PBM E-score” value: -0.159 for the first, 0.463 for the second.

Compared with AGTACAAA, AAACTGCC is higher in “PBM E-score” value: -0.232 for the first, 0.062 for the second.

Compared with CGATAACA, ATTGCATA is lower in “PBM E-score” value: 0.191 for the first, -0.0781 for the second.

First: ATGATGCA
Second: CCGCAGAG
The “PBM E-score” value of the first is lower: -0.187 for the first, 0.0199 for the second.

Compared with AACACGAG, ACACAAAT is higher in “PBM E-score” value: -0.114 for the first, -0.0925 for the second.

Going from AAGCATGG to ACTGATAT, the “PBM E-score” value rises from -0.088 to -0.0693.

First: AGCTAACC
Second: GATCGGAC
The “PBM E-score” value of the first is lower: 0.0264 for the first, 0.415 for the second.

First: GTTACCCA
Second: ATATGCAC
The “PBM E-score” value of the first is higher: -0.115 for the first, -0.175 for the second.

Going from AGGTGGTC to AAGTATCA, the “PBM E-score” value rises from -0.203 to -0.126.

First: ATCGTTGG
Second: ACCTGAGG
The “PBM E-score” value of the first is lower: -0.205 for the first, 0.0237 for the second.

First: GCGATAGA
Second: AAGATTAC
The “PBM E-score” value of the first is higher: 0.13 for the first, 0.0892 for the second.

Going from ACACGCGG to GCTACACC, the “PBM E-score” value falls from 0.181 to 0.0808.

First: ATATAGCA
Second: CAAACCAA
The “PBM E-score” value of the first is higher: 0.00261 for the first, -0.233 for the second.

First: ACATGTAG
Second: GCCTGGAA
The “PBM E-score” value of the first is higher: -0.11 for the first, -0.338 for the second.

Compared with AGACTATA, AATTTCCT is lower in “PBM E-score” value: -0.0559 for the first, -0.191 for the second.

Going from CAGGATCC to TTAGAGAA, the “PBM E-score” value falls from -0.0743 to -0.327.

First: CACGGACG
Second: CGCTTGCC
The “PBM E-score” value of the first is higher: 0.147 for the first, 0.00486 for the second.

Compared with CAATTAAA, CGACGTCA is lower in “PBM E-score” value: -0.00358 for the first, -0.19 for the second.

Compared with AGTAAACC, CGGACACA is higher in “PBM E-score” value: 0.165 for the first, 0.356 for the second.

First: ACCGAAGT
Second: GGGAGGAC
The “PBM E-score” value of the first is higher: 0.108 for the first, -0.126 for the second.

First: ATGCCTCC
Second: CCCTCAGA
The “PBM E-score” value of the first is higher: 0.105 for the first, -0.174 for the second.

Going from AATAGTCC to GAACCCCC, the “PBM E-score” value falls from 0.335 to 0.07.

Compared with CTAGAATC, GCTTGGCC is higher in “PBM E-score” value: -0.0612 for the first, 0.143 for the second.

Going from CTGTCACC to CATGTCAG, the “PBM E-score” value falls from 0.0942 to -0.276.

Going from CTTTAAAG to GAAGCCTA, the “PBM E-score” value rises from -0.176 to 0.00672.

Compared with AGTTGACG, GATCAAAC is lower in “PBM E-score” value: 0.0184 for the first, -0.0286 for the second.

Going from AGTGAGCC to CATCACTC, the “PBM E-score” value falls from -0.0796 to -0.0848.

Compared with TCAGCCCA, ATCGTCAT is higher in “PBM E-score” value: -0.195 for the first, -0.187 for the second.

First: CACTAACA
Second: ACACGAAC
The “PBM E-score” value of the first is lower: -0.0592 for the first, 0.069 for the second.

Going from CGTTTCAC to CCTTCAAC, the “PBM E-score” value falls from -0.027 to -0.248.

Compared with CCCGTACG, CCTGCCTC is lower in “PBM E-score” value: 0.121 for the first, -0.158 for the second.

From the supplement of paper PMC3334620
